Assay results from PMC7819943, “Rice protein-binding microarrays: a tool to detect cis-acting elements near promoter regions in rice”.
This is one part of the list.

target: T1, OsWOX13 (Oryza sativa, UniProt Q5QMM3 1-267); assay: protein-binding microarray (RPBM); PBS, 2% BSA, 51.3 ng/ul salmon testes DNA, 50 uM zinc acetate, 200 nM TF, 25 C, 1 h; high values mean tight binding; conditions: protein: recombinant; tags: N-terminal polyhistidine and DsRed monomer fusion (pET32a); label: CyDye5-dUTP incorporated in the synthesized complementary strand; 3' TTTTT single-stranded linker to array surface; dsDNA, one strand shown
T1 sequence: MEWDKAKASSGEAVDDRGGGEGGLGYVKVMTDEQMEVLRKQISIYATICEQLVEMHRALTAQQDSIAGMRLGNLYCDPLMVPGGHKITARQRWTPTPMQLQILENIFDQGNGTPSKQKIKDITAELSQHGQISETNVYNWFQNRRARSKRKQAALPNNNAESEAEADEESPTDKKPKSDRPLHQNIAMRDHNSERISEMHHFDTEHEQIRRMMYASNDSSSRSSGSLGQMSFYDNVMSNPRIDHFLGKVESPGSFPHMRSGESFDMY
Procedure, shortened: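 Transcription factors were made in E. coli BL21-CodonPlus as N-terminal fusions to a polyhistidine tag and DsRed, then purified on Ni–NTA. After primer extension with Cy5-dUTP and blocking with 2% BSA, a custom Agilent array was exposed for 1 h at 25 °C to 200 nM protein in PBS, 2% BSA, salmon testes DNA and 50 µM zinc acetate. Washed arrays were scanned on an Axon 4000B, and the binding signal is per-feature fluorescence intensity in arbitrary units.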

Which binding signal does the source give for “ATAAAGTTTTAAACGTTAAATTAATTTTCTGGCCGAAGGGCGGAGTCACCTAGTGCAG” here?
Its binding signal is 8740 fluorescence intensity (a.u.).

“TATCTAATAAATTTATTTTCAAGTTTATAATAATAAACATCGGAGTCACCTAGTGCAG” was tested. Which binding signal did it give?
The binding signal was 10400 fluorescence intensity (a.u.).

How did the binding signal turn out when “ATCGGAAATTATTATTTTAATCGGCGCGGTGTCCACTGGCCGGAGTCACCTAGTGCAG” was run?
Its binding signal is 7500 fluorescence intensity (a.u.).

With “TTATTAAGTTAACTATAGATGATTTGGAGTCAATAGTTGGCGGAGTCACCTAGTGCAG” as the sequence, how does the binding signal read?
Its binding signal is 10300 fluorescence intensity (a.u.).

Which binding signal does the source give for “TTTGATTCTCTGTTAGTCTGATTTCCCTCCTGGTTTGAATCGGAGTCACCTAGTGCAG” here?
Its binding signal is 5880 fluorescence intensity (a.u.).

For “GACATGTTCTTAATAATTGGCAGCAGATTTACTCATGTCGCGGAGTCACCTAGTGCAG”, which binding signal is on record?
The binding signal was 12800 fluorescence intensity (a.u.).

For “GGAAACTGTCTATCCATTTTGTCGGGTGATTTCTCTCTAGCGGAGTCACCTAGTGCAG”, which binding signal is on record?
Its binding signal is 9020 fluorescence intensity (a.u.).

Which binding signal does the source give for “CGGTAGATTGAATTATTTGCTGATCTTTGCTTTCTTGAAGCGGAGTCACCTAGTGCAG” here?
Its binding signal is 45900 fluorescence intensity (a.u.).

How did the binding signal turn out when “TACCAATTACTTGTACTGTACTAGCTAGGAGTACTGTATACGGAGTCACCTAGTGCAG” was run?
Its binding signal is 3930 fluorescence intensity (a.u.).

“ATATGTAATTTGTTTTATTATTAGACTACGTTTAATACTTCGGAGTCACCTAGTGCAG” was tested. Which binding signal did it give?
Its binding signal is 8720 fluorescence intensity (a.u.).

Which binding signal does the source give for “ATACTATTGTAAACAAATTAATCAATTTGAATGTCGGTCTCGGAGTCACCTAGTGCAG” here?
Its binding signal is 3210 fluorescence intensity (a.u.).

“ATGATTGGTGAACTCGGCTATTGGCCAGAATAGGATATCCCGGAGTCACCTAGTGCAG” was tested. Which binding signal did it give?
Its binding signal is 37700 fluorescence intensity (a.u.).

With “GGTAAGATTGATTTTGGTAGTAATCTAAACATGCCCTGGGCGGAGTCACCTAGTGCAG” as the sequence, how does the binding signal read?
The binding signal was 46400 fluorescence intensity (a.u.).

With “TTAAGATAGTTGATTACCTACGCAAGAAAGAGAGATGCTTCGGAGTCACCTAGTGCAG” as the sequence, how does the binding signal read?
The binding signal was 7670 fluorescence intensity (a.u.).

“CCTATAATTGGAAACTCATTATTGTTTTGTTTTCAACTTGCGGAGTCACCTAGTGCAG” was tested. Which binding signal did it give?
Its binding signal is 47200 fluorescence intensity (a.u.).

Which binding signal does the source give for “ACAGTAATGGGCCGGTAATTTTGGCCCAGTGGTCTTCCAACGGAGTCACCTAGTGCAG” here?
Its binding signal is 4460 fluorescence intensity (a.u.).

Which binding signal does the source give for “CCCCTGATCTAAATACAGACTGATTATATGTTGTGATGGACGGAGTCACCTAGTGCAG” here?
Its binding signal is 8740 fluorescence intensity (a.u.).

With “GAAGATTGTGATTGGATGCAAGTGAAGATAAGTGAGGAAACGGAGTCACCTAGTGCAG” as the sequence, how does the binding signal read?
The binding signal was 22500 fluorescence intensity (a.u.).

For “CTGTGATAATCTGTCTTCCTGTGATACCAGCACTGTTTCCCGGAGTCACCTAGTGCAG”, which binding signal is on record?
The binding signal was 3340 fluorescence intensity (a.u.).

With “AACTTGATATCAATCTTGTTCTGGTTTTGGATTTGAATTTCGGAGTCACCTAGTGCAG” as the sequence, how does the binding signal read?
Its binding signal is 18000 fluorescence intensity (a.u.).

How did the binding signal turn out when “TGACCACTTCAAATCAATTACTGCCTGAGCTCACTTGACCCGGAGTCACCTAGTGCAG” was run?
Its binding signal is 10300 fluorescence intensity (a.u.).

“TTGTATAATTAAAATGATATATTGCATTGACATTTCAATCCGGAGTCACCTAGTGCAG” was tested. Which binding signal did it give?
Its binding signal is 8770 fluorescence intensity (a.u.).

For “AATGTTTAATTGGATCCAAGAGTATAATGCGTTTGAATTACGGAGTCACCTAGTGCAG”, which binding signal is on record?
The binding signal was 12900 fluorescence intensity (a.u.).

Which binding signal does the source give for “ATTCCTAACCCAATAATTAGGATGATGTCCATAGCATTAACGGAGTCACCTAGTGCAG” here?
Its binding signal is 25300 fluorescence intensity (a.u.).

Which binding signal does the source give for “CTAGAACATAATTACTATATGTATGACTCCGACCTGCACACGGAGTCACCTAGTGCAG” here?
The binding signal was 9450 fluorescence intensity (a.u.).

How did the binding signal turn out when “TCTGATTTGTTGGTGATGTGTTGCTGTACTTCTTGTTCTGCGGAGTCACCTAGTGCAG” was run?
Its binding signal is 36800 fluorescence intensity (a.u.).

“AATTATTGATTTGATGAAACTAATTTAGTATTATAAAGAGCGGAGTCACCTAGTGCAG” was tested. Which binding signal did it give?
Its binding signal is 51000 fluorescence intensity (a.u.).

For “TAACGGATTGATACATCTGGTTACAAATGTGCACTACATACGGAGTCACCTAGTGCAG”, which binding signal is on record?
Its binding signal is 3880 fluorescence intensity (a.u.).

“AGGCTAATTAACAGAGAGGGGACAATATGCAACAACGTATCGGAGTCACCTAGTGCAG” was tested. Which binding signal did it give?
Its binding signal is 24000 fluorescence intensity (a.u.).

For “ATCTGTCCTGATTATCATTTGTTTTATGATAAACTTACCTCGGAGTCACCTAGTGCAG”, which binding signal is on record?
The binding signal was 9670 fluorescence intensity (a.u.).

Which binding signal does the source give for “CCTGGGCCAATCAAAAGCCGGTCCATTTGGCCCACTAACCCGGAGTCACCTAGTGCAG” here?
The binding signal was 3170 fluorescence intensity (a.u.).

How did the binding signal turn out when “TAAATTTCCTGCAGATTGTCATGCAATCAGACATGCTCATCGGAGTCACCTAGTGCAG” was run?
Its binding signal is 5960 fluorescence intensity (a.u.).

For “CCTCAATAAATTAACTTAACAGAAATACAATACATGTACGCGGAGTCACCTAGTGCAG”, which binding signal is on record?
The binding signal was 10900 fluorescence intensity (a.u.).

“CAAACATAATGATGATACAAATATTTGTTAATATTGTTCGCGGAGTCACCTAGTGCAG” was tested. Which binding signal did it give?
The binding signal was 7430 fluorescence intensity (a.u.).

“TTCAAATTTAAGGTTGAAAATTTAAAGTTTGGCTGATAAGCGGAGTCACCTAGTGCAG” was tested. Which binding signal did it give?
The binding signal was 4040 fluorescence intensity (a.u.).

Which binding signal does the source give for “CTGACATCATCATCAAATTAGGGGACAATTGGAATTCTATCGGAGTCACCTAGTGCAG” here?
The binding signal was 13600 fluorescence intensity (a.u.).

With “ACGTGCGAGATAGATGAAAATGAAATTTATTTTAAGGCTGCGGAGTCACCTAGTGCAG” as the sequence, how does the binding signal read?
The binding signal was 4480 fluorescence intensity (a.u.).

With “ACGTTTTAAAATGTTTTAGATTAGACACATGGAAAACAGTCGGAGTCACCTAGTGCAG” as the sequence, how does the binding signal read?
The binding signal was 3330 fluorescence intensity (a.u.).

For “ATTTTGTGATTAGTCTCTTGTGATTAAGAGAAAATTATGGCGGAGTCACCTAGTGCAG”, which binding signal is on record?
Its binding signal is 29800 fluorescence intensity (a.u.).

How did the binding signal turn out when “ATTGATTGACCGAGCGCACTACTCTTTATCTTTTCGATTGCGGAGTCACCTAGTGCAG” was run?
Its binding signal is 64900 fluorescence intensity (a.u.).

“TATATATATTTAAATTTAATGCTATTTATCTCATATGATGCGGAGTCACCTAGTGCAG” was tested. Which binding signal did it give?
Its binding signal is 4080 fluorescence intensity (a.u.).

With “GCACCAATTAATATTGGAGCTATCGTTCTTCTTCCCATCACGGAGTCACCTAGTGCAG” as the sequence, how does the binding signal read?
The binding signal was 3290 fluorescence intensity (a.u.).

“AATAAACTCTGAGCAGATTGATGGCCCAACAGTTTCATGGCGGAGTCACCTAGTGCAG” was tested. Which binding signal did it give?
The binding signal was 25700 fluorescence intensity (a.u.).

For “ATAATAAAATGCTAATTTGCTGGAGTACTAGATTATAGACCGGAGTCACCTAGTGCAG”, which binding signal is on record?
The binding signal was 14900 fluorescence intensity (a.u.).

Which binding signal does the source give for “AGATCAATCACATATAGATATAGCTAGATTGCTATAGACACGGAGTCACCTAGTGCAG” here?
The binding signal was 34400 fluorescence intensity (a.u.).

“CAGAATGACTACTAAACTGGACAGAGGGAGTATATCTGTACGGAGTCACCTAGTGCAG” was tested. Which binding signal did it give?
Its binding signal is 3950 fluorescence intensity (a.u.).

Which binding signal does the source give for “GAGTAGTTAATTATTCCGGGAATACAACCCAGCCAAGCAACGGAGTCACCTAGTGCAG” here?
Its binding signal is 6250 fluorescence intensity (a.u.).

“ATCCAAATTGGACCCATCTAGTTGCCCCGGCCCAACACGGCGGAGTCACCTAGTGCAG” was tested. Which binding signal did it give?
Its binding signal is 10000 fluorescence intensity (a.u.).

With “GGTAAATTGCAATACTCCGGATGTTCAGAGACAATAAGAGCGGAGTCACCTAGTGCAG” as the sequence, how does the binding signal read?
The binding signal was 13900 fluorescence intensity (a.u.).

For “ACTTTTCCGTCACATCGTTCTAATTTCTTCAAACTTCTAACGGAGTCACCTAGTGCAG”, which binding signal is on record?
The binding signal was 3750 fluorescence intensity (a.u.).

How did the binding signal turn out when “AGGTAATTAAGATATGAATAGAAATACCATATCTCTATCTCGGAGTCACCTAGTGCAG” was run?
The binding signal was 21500 fluorescence intensity (a.u.).

With “GATAACTGGATTCATCTGTCTCCTCAACGTGTGGTCTGTACGGAGTCACCTAGTGCAG” as the sequence, how does the binding signal read?
Its binding signal is 19900 fluorescence intensity (a.u.).

With “AAAACTAATTTTATAACTCACCTGGAAACCGCGAGATGAACGGAGTCACCTAGTGCAG” as the sequence, how does the binding signal read?
Its binding signal is 4940 fluorescence intensity (a.u.).

How did the binding signal turn out when “GCAAGACAGATTTGCTACGAAAGTGTGTTGGTTGGTGGCACGGAGTCACCTAGTGCAG” was run?
Its binding signal is 6420 fluorescence intensity (a.u.).
